# Out of some 220,000 compounds screened, about 16,000 (7.3%) were called active. Inconclusive means that the source gave no clear call. Such entries were picked first, then a sample of the others. Calls come from the whole dose curve; as a rule, active = well fitted inhibition curve with a large enough effect (not every such curve was filed as active); inconclusive = small, poorly fitted or top-dose-only effect, or another doubt; inactive = no such curve, though single readings can be large or run the other way. Potencies of inconclusive entries are left out as doubtful fits.
# Target: Aldehyde dehydrogenase 1A1 (Homo sapiens) (UniProt P00352)
# Chain of UniProt P00352 (P00352 whole entry, looked up): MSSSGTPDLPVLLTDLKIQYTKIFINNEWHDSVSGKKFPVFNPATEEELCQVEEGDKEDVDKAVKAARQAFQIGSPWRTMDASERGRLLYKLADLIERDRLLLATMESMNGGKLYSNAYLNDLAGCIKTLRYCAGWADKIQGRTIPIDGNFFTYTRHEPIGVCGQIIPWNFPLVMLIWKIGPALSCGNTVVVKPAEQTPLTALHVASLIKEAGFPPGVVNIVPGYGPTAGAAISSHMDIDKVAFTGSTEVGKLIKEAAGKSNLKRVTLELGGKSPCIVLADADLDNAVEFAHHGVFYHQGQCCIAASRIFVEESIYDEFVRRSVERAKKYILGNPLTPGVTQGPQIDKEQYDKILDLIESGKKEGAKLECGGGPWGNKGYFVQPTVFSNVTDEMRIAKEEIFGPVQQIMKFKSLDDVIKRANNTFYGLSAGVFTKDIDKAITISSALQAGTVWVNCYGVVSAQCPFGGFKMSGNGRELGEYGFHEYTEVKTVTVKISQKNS
# Assay: qHTS Assay for Inhibitors of Aldehyde Dehydrogenase 1 (ALDH1A1);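 for activity, negative = inhibition: plate controls were no enzyme wells and a reference inhibitor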
# Conditions: Purified ALDH1A1, NADH fluorescence, propionaldehyde substrate; series mostly up to 75.3 µM; activity, negative = inhibition: at the top concentration
# Potency is the fitted concentration of half-maximal effect; tags give direction and shape of the fitted curve.
SMILES,Potency,"activity, negative = inhibition"
CC1=CC2=NC(=O)CC(C)(C(=O)N(CC(=O)NC(C)(C)C)Cc3cccs3)N2C=C1 (stereo not given),"inconclusive [inhibitor, partial curve]",–
CCOCc1nnc(NC(=O)COC)s1,"inconclusive [inhibitor, single point]",–
CCOC(=O)C1Oc2ccccc2C(c2cccc3ccccc23)=C1C(=O)OC (stereo not given),"inconclusive [inhibitor, single point]",–
CC(C)CC(=O)NC(=S)NNC(=O)c1cccc([N+](=O)[O-])c1,"inconclusive [inhibitor, single point]",–
N/C(=N\NC(=O)c1cccs1)c1cc2ccccc2oc1=O,–,inactive: 17.4%
C=C(C)Cn1c(C)cc(C)c(S(=O)(=O)c2ccc(C)cc2)c1=O,"inconclusive [inhibitor, single point]",–
CCOC(=O)c1[nH]c2ccc(OC)cc2c1NC(=O)CN1CCC2(CC1)OCCO2,"inconclusive [inhibitor, partial curve]",–
Cc1ccc(NS(=O)(=O)c2ccc(C(=O)N3CCCN(C)CC3)cc2)cc1,–,inactive: -0.0593%
O=C(O)c1cc(N=Cc2ccccc2O)cc(C(=O)O)c1,–,inactive: -15.6% [at 13.5 µM]
CCCCNc1ncnc2c1cnn2-c1ccc(C)cc1C,"inconclusive [inhibitor, single point]",–
Cc1ccc2oc(-c3ccccc3)c(O)c(=O)c2c1,–,inactive: -0.519%
Cn1ccnc1C(O)c1cc(C(C)(C)C)c(O)c(C(C)(C)C)c1 (stereo not given),"inconclusive [inhibitor, single point]",–
CN(Cc1ccccc1)C(=O)COC(=O)c1ccccc1NS(=O)(=O)c1cccc(N)c1,"inconclusive [inhibitor, single point]",–
Cc1ccc(CN2CC(C(=O)Nc3cc(S(C)(=O)=O)ccc3Cl)CC2=O)cc1 (stereo not given),"inconclusive [inhibitor, single point]",–
CC(C)(C)C(=O)COC(=O)CCc1nc2ccccc2[nH]c1=O,"inconclusive [inhibitor, single point]",–
COc1ccc(NC(=O)CN2CCCC(C)C2)c([N+](=O)[O-])c1 (stereo not given),"inconclusive [inhibitor, single point]",–
CCOC(=O)c1ncn2c1C(=O)OC2(C)C,"inconclusive [inhibitor, single point]",–
NC(=O)C1CCN(C(=S)NCc2ccc3c(c2)OCO3)CC1,–,inactive: 2.42%
CCn1cc(C(=O)N2CCc3ccccc3C2)c(=O)c2cc(S(=O)(=O)N3CCCCC3)ccc21,"inconclusive [inhibitor, single point]",–
COc1ccc(C(=O)Nc2scc(-c3ccc(Cl)cc3Cl)c2C(N)=O)cc1,"inconclusive [inhibitor, single point]",–
C=CCOC(=O)C1CC=CCC1C(=O)Oc1ccc(F)cc1F (stereo not given),–,inactive: 1.8%
COc1ccc(F)cc1CN1CCN(C(=O)CCC(=O)Nc2nnc(C(C)C)s2)CC1,"inconclusive [inhibitor, single point]",–
CC(OC(=O)CN1C(=O)C2CCCCC2C1=O)C(=O)Nc1ncc(Cl)cc1Cl (stereo not given),"inconclusive [inhibitor, single point]",–

SMILES,Potency,"activity, negative = inhibition"
COc1ccc(-c2cc(=O)[nH][nH]2)cc1,–,inactive: -2.2%
COc1cccc(-n2nnnc2SCC(=O)NCc2ccco2)c1,"inconclusive [inhibitor, single point]",–
O=C(NCc1ccccn1)c1ccco1,"inconclusive [inhibitor, single point]",–
C=CC[n+]1c(-c2ccc(OCC)cc2)csc1NNC(=O)Nc1ccccc1,"inconclusive [inhibitor, single point]",–
O=C(CNC(=O)OCc1ccccc1)Oc1cc2oc(=O)cc(-c3ccccc3)c2cc1Cl,"inconclusive [inhibitor, single point]",–
CCn1cc(C(=O)OCC(=O)Nc2ccc(C(C)C)cc2)c(=O)c2ccc(C)nc21,active: 14.1 µM,–
CS(=O)(=O)N1CCN(C(=O)Cc2ccccc2Cl)CC1,–,inactive: 9.82%
COc1cc(/C=C/C(=O)O)cc(S(=O)(=O)NCCO)c1OC,"inconclusive [inhibitor, single point]",–
COc1ccc2cc(/C(C)=N/NC(=O)C3CC3)ccc2c1,"inconclusive [inhibitor, single point]",–
O=C(CSc1nnc2ccccn12)NC(=O)NC1CCCC1,–,inactive: 6.88%
CN1C(=O)CC(C(=O)Nc2ccccc2F)SC1=Nc1ccc2c(c1)OCO2 (stereo not given),–,inactive: 3.1%
CCOC(=O)c1c(-c2ccc(OCC)cc2)csc1NC(=O)CCN1C(=O)c2ccccc2C1=O,–,inactive: -14.3%
COc1cc(/C=N/Nc2nc(C)cc(=O)[nH]2)ccc1OC(=O)c1cccnc1,–,inactive: 13.5%
CCCOc1ccc(C2NC(=S)NC(c3ccccc3)=C2C(=O)Nc2ccc(C)cc2)cc1OC (stereo not given),active: 0.355 µM,–
COc1ccc2c3c(c(=O)oc2c1OCC(=O)C(C)(C)C)CCCC3,"inconclusive [inhibitor, partial curve]",–
COc1ccc(N(C(=O)c2ccc(C)cc2)S(=O)(=O)c2cccs2)cc1,"inconclusive [inhibitor, single point]",–
CCOc1ccc(Br)cc1/C(C)=N\NC1=NCCN1,–,inactive: -6.96%
CCCNC(=O)Cn1cnc2sc(C(=O)N3CCCC(C(=O)OCC)C3)c(C)c2c1=O (stereo not given),"inconclusive [inhibitor, full curve]",–
CC(C)(C)Nc1scc(-c2ccccc2)[n+]1-c1ccccc1,"inconclusive [inhibitor, partial curve, poor fit]",–
COCCNC(=O)Cn1cc(S(=O)(=O)N2CCN(c3ccccc3F)CC2)c2ccccc2c1=O,"inconclusive [inhibitor, single point]",–
CC1CCCC(NC(=O)c2ccc3c(=O)n(CC4CCCO4)c(=O)[nH]c3c2)C1C (stereo not given),"inconclusive [inhibitor, partial curve]",–
COc1ccc(OCC(=O)Nc2sc3c(c2C(=O)NCC2CCCO2)CCC3)cc1 (stereo not given),"inconclusive [inhibitor, partial curve]",–

# — PubChem BioAssay AID1030 (National Center for Advancing Translational Sciences (NCATS), 2008)
